# Assay results taken from PubChem BioAssay AID1508642 (National Center for Advancing Translational Sciences (NCATS), 2021).
# About 200 (0.47%) of roughly 43,000 compounds were called active. Inconclusive results (about 12%) are left out. Calls follow the shape of the dose curve; as a rule, active = well fitted cell-killing curve with a large enough effect; inconclusive = small, poorly fitted or top-dose-only effect, or effect the other way; inactive = flat fitted curve, though single readings scatter. Some of the results follow.
# Experiment: Cell viability qHTS assay in S16 Pmp22-F2sN cells; also: nearly all actives have a fitted effect of over 65% in size
# Conditions: S16 Pmp22-F2sN Schwann cells (luciferase reporters placed in the Pmp22 gene) viability, CellTiter-Glo, 24 h; series mostly up to 57.5 µM; activity change, negative = cytotoxicity: at the top concentration
# Summary of the method: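 Seed 500-1,000 S16 Pmp22-F2sN cells per well in phenol-red-free DMEM with 10% heat-inactivated FBS; pin-add 23 nL compound; incubate 24 h at 37C; add CellTiter-Glo, wait 15 min protected from light; read luminescence.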
# % is scaled to controls: 0 for no effect and ±100 for the full control effect.
row,SMILES,"activity change, negative = cytotoxicity"
1,CC1CCN(C(=O)CSc2nnc(-c3ccccc3)o2)CC1,inactive: 8.99%
2,Cc1cccc(C)c1OC(=O)CSc1nnc(CNC(=O)c2ccccc2)o1,inactive: -0.276%
3,Cc1ccc(OCC(=O)Nc2ccc3nc(SCc4ccccc4)sc3c2)cc1,inactive: 0.392%
4,CCCCN(Cc1ccccc1)C(=O)CN(C)S(=O)(=O)c1ccc2c(c1)c(=O)n(C)c(=O)n2C,inactive: 0.818%
5,O=C(Nc1cc(C(F)(F)F)ccc1Cl)c1cc(S(=O)(=O)NCc2ccccc2)ccc1F,inactive: 2.64%
6,CCOC(=O)c1cccc(NC(=O)Cn2c(=O)nc(-c3ccccc3)c3ccccc32)c1,inactive: 0.808%
7,Cc1cccc(OCc2ccc(-c3nc(C#N)c(N4CCC(C(N)=O)CC4)o3)o2)c1,inactive: 1.38%
8,CCc1cc2c(cc3c(=O)n(CCCC(=O)NCc4ccccc4Cl)nc(CC)n32)s1,inactive: 10.3%
9,COCCCNC(=O)CC(c1cc(OC)c(OC)c(OC)c1)N1Cc2ccccc2C1=O (configuration not stated),inactive: 8.68%
10,COc1ccc(NC(=O)C(Cc2ccccc2)NS(=O)(=O)c2ccc(Br)s2)cc1OC (configuration not stated),inactive: -17.9%
11,COc1ccc(OC)c(CCNC(=O)c2cc3c(-c4ccccc4F)nn(C)c3s2)c1,inactive: -28.2%
12,CCOc1cc(C(=O)Nc2ccc3oc(-c4ccc(CC)cc4)nc3c2)cc(OCC)c1OCC,inactive: 11.9%
13,COc1ccccc1CCNC(=O)CCn1c(=O)c2cccn2c2ccc(F)cc21,inactive: 5.2%
14,Cc1cc(C)cc(NC(=O)CSCn2nnc3c(=O)[nH]c(Cc4ccc(F)cc4)nc32)c1,inactive: 2.47%
15,O=C(Cn1c(-c2cccs2)cc2cc(Cl)ccc21)NCc1ccccc1,inactive: 8.75%
16,CCCSc1nc(=O)c2c(n1C)NC(=O)CC2c1cccc(F)c1F (configuration not stated),inactive: 7.3%
17,CCc1ccccc1NC(=O)CN(Cc1ccccc1)S(=O)(=O)c1ccc2nc(C)sc2c1,inactive: -10.5%
18,CCOC(=O)c1c(NC(=O)CCCOc2ccc(C(C)(C)C)cc2)sc2c1CCC2,inactive: -0.385%
19,COc1ccc(N2CCN(C(=O)Cc3c(C(=O)O)c(C)cn3C)CC2)cc1,inactive: -0.837%
20,COc1ccc(-n2nc3ccc(NC(=O)COc4ccc(C)c(C)c4)cc3n2)cc1,inactive: 16.5%
21,CC(=O)c1cccc(NC(=O)c2cnn(-c3cccc(C)c3)c2-n2cccc2)c1,inactive: -0.874%
22,CCC(=O)N1CCc2cc(Br)cc(S(=O)(=O)NCCc3ccccc3Cl)c21,inactive: -11.6%
23,CCc1cc(C(=O)Nc2cnn(Cc3ccc(F)cc3)c2)no1,inactive: -13.2%
24,Cc1cccc(NC(=O)Cn2cc(S(=O)(=O)c3ccc(F)cc3)c(=O)c3cc4c(cc32)OCO4)c1,inactive: 4.1%

row,SMILES,"activity change, negative = cytotoxicity"
1,O=C(CN1Cc2ccccc2C1=O)Nc1cc(F)ccc1F,inactive: 0.439%
2,Cc1cccc(N(C)C(=O)C(Cc2ccccc2)NS(=O)(=O)c2cccc3nsnc23)c1 (configuration not stated),inactive: -18.6%
3,Cc1ccc(C)c(NC(=O)N2CC=C(c3c[nH]c4ccccc34)CC2)c1,inactive: 4.21%
4,Cc1cc(C)c(NC(=O)CSc2nc(C)cc(C)c2C#N)c(C)c1,inactive: -3.75%
5,COc1ccccc1OCC(=O)N(Cc1ccc(N(C)C)cc1)CC1CCCO1 (configuration not stated),inactive: -12.6%
6,CCOc1ccc(-n2c(SCC(=O)Nc3ccccc3OC)nc3c(oc4ccccc43)c2=O)cc1,inactive: 20.8%
7,CC(=O)c1ccc(NC(=O)C2CCN(S(=O)(=O)c3ccc4c(c3)CCCN4C(=O)C3CCC3)CC2)cc1,inactive: 2.92%
8,Cc1ccc2oc(=O)c3cnn(CC(=O)N(C)c4ccc(F)cc4)c3c2c1,inactive: 16.7%
9,COc1ccc(Nc2ccc3cc(S(=O)(=O)N4CCCC4)ccc3n2)cc1Cl,inactive: -19.8%
10,Cc1c(F)cccc1NC(=O)C1CCCN1S(=O)(=O)c1ccc(F)cc1 (configuration not stated),inactive: -8.22%
11,COc1ccccc1CNC(=O)c1cn(C)c2ccc(S(=O)(=O)N3CCC(C)CC3)cc2c1=O,inactive: 1.16%
12,COc1cc(OC)c(NC(=O)c2ccc3nc(C(C)C)oc3c2)cc1Cl,inactive: -34.7%
13,Cc1ccc2[nH]cc(C(c3ccccc3)c3cccs3)c2c1 (configuration not stated),inactive: 12.5%
14,O=C(c1ccc2c(c1)OCO2)c1cn(Cc2ccc(F)cc2)c2ccccc2c1=O,inactive: 6.61%
15,Cn1nc(C(=O)N2CCN(c3ccccc3)CC2)c2c1-c1ccccc1SC2,inactive: 2.75%
16,CCCCN(CC)C(=O)Cn1c(=O)n(-c2ccc(OCC)cc2)c(=O)c2c3c(sc21)CCC3,inactive: 9.06%
17,CC(=O)c1cccc(-n2c(=O)c3c4c(sc3n(Cc3ccccc3Cl)c2=O)CN(C(C)=O)CC4)c1,inactive: 16%
18,CCCOC(=O)c1c(NC(=O)c2nc3ncccn3n2)sc(C(=O)OCC)c1C,inactive: -0.297%
19,COc1cc(OC)c(C2C=C(C(=O)O)Nc3ncnn32)cc1OC (configuration not stated),inactive: 15.5%
20,CCOc1ccc(OCC)c(NC(=O)c2cc(C)nc3c2c(C)nn3-c2cccc(Cl)c2C)c1,inactive: -13.2%
21,CCOc1ccc(NC(=O)Cn2c(=O)n(CCc3ccccc3)c(=O)c3c4c(sc32)CN(C(C)=O)CC4)cc1,inactive: 5.23%
22,CCc1ccc(NC(=O)CSC2=Nc3ccccc3C3=NC(CCC(=O)NCc4ccccc4OC)C(=O)N23)cc1 (configuration not stated),inactive: -0.291%
23,CCOCCCNC(=O)c1cnc2sc(N3CCCCCC3)nn2c1=O,inactive: 8.42%
